{"source": "the supplement of paper PMC9446081", "note": "About 220 (0.56%) of roughly 39,000 compounds showed activity. The list shows a part of the results.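 Also: static incubation at 37 °C against the wild-type strain, values averaged over two biological replicates.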", "data": [{"test_system": "Escherichia coli K-12 BW25113", "test": "relative growth (OD600 normalised to plate interquartile mean) (fraction); higher = less growth inhibition, active = 0.2 or less", "conditions": "50 µM; LB; incubation time: overnight (16-24 h)", "values": [{"smiles": "C[C@H]1CN([C@@H](C)CO)C(=O)Cc2cc(NS(=O)(=O)c3ccc(Cl)cc3)ccc2O[C@@H]1CN(C)Cc1ccc(C(=O)Nc2ccccc2N)cc1", "relative growth": "inactive: 0.994"}, {"smiles": "COc1ccc2c3c(n(c2c1)C)[C@@H](CO)N(C[C@]13CN(Cc2ccncc2)C1)C(=O)CN1CCOCC1", "relative growth": "inactive: 1.03"}, {"smiles": "Cc1ccccc1S(=O)(=O)N(C)C[C@@H]1Oc2ccc(NC(=O)Nc3cc(Cl)cc(Cl)c3)cc2CC(=O)N([C@@H](C)CO)C[C@@H]1C", "relative growth": "inactive: 0.972"}, {"smiles": "C[C@H](CO)N1C[C@H](C)[C@H](CN(C)Cc2ccc(Oc3ccccc3)cc2)Oc2c(NS(=O)(=O)c3ccc(F)cc3)cccc2C1=O", "relative growth": "inactive: 1.02"}, {"smiles": "C[C@@H]1CCCCO[C@@H](CN(C)CC2CCCCC2)[C@@H](C)CN([C@H](C)CO)C(=O)c2cc(NC(=O)Nc3ccccc3)ccc2O1", "relative growth": "inactive: 1.01"}, {"smiles": "COc1ccccc1-c1ccc2c(c1)O[C@H](CN(C)C(=O)c1cccnc1)[C@H](C)CN([C@H](C)CO)S2(=O)=O", "relative growth": "inactive: 0.999"}, {"smiles": "C[C@H](CO)N1C[C@H](C)[C@H](CN(C)C(=O)Nc2ccc(C(F)(F)F)cc2)OCCCC[C@H](C)Oc2ccc(NC(=O)C3CCCCC3)cc2C1=O", "relative growth": "inactive: 0.986"}, {"smiles": "CN(C)CCCNC(=O)C[C@@H]1CC[C@@H]2[C@H](COC[C@H](O)CN2C(=O)c2cc(Cl)cc(Cl)c2)O1", "relative growth": "inactive: 1.01"}, {"smiles": "Cc1cc(C(=O)COC(=O)Cn2cnc3c2c(=O)n(C)c(=O)n3C)c(C)n1C", "relative growth": "inactive: 0.991"}, {"smiles": "Cc1noc(C)c1S(=O)(=O)Nc1ccc2c(c1)C(=O)N([C@@H](C)CO)C[C@@H](C)[C@@H](CN(C)Cc1ccc(C(F)(F)F)cc1)OCCCC[C@H](C)O2", "relative growth": "inactive: 1.08"}, {"smiles": "C[C@@H]1CCCCO[C@@H](CN(C)Cc2ccc(C(F)(F)F)cc2)[C@H](C)CN([C@@H](C)CO)C(=O)c2cc(NC(=O)c3ccccc3)ccc2O1", "relative growth": "inactive: 0.965"}, {"smiles": "c1ccc(-c2ccnc(-c3cc(-c4ccccc4)ccn3)c2)cc1", "relative growth": "inactive: 0.99"}, {"smiles": "C[C@@H]1CN([C@@H](C)CO)C(=O)c2cc(NC(=O)C3CCCCC3)ccc2O[C@@H](C)CCCCO[C@@H]1CN(C)Cc1ccncc1", "relative growth": "inactive: 1.01"}, {"smiles": "N#C/C(=C\\c1ccc(O)c(O)c1)C(N)=O", "relative growth": "inactive: 0.982"}, {"smiles": "C[C@H](CO)N1C[C@H](C)[C@H](CN(C)C(=O)Nc2ccc3c(c2)OCCO3)OCc2cnnn2CCCC1=O", "relative growth": "inactive: 1.01"}, {"smiles": "CCOC(=O)C1=C(C)N[C@@]2(O)C[C@@H]1[C@H]1CO[C@@H]2O1", "relative growth": "inactive: 0.988"}, {"smiles": "C[C@H](CO)N1C[C@H](C)[C@H](CN(C)S(C)(=O)=O)Oc2ccc(NC(=O)Cc3ccccc3)cc2CC1=O", "relative growth": "inactive: 1"}, {"smiles": "COc1ccc(CN(C)C[C@@H]2Oc3ccc(NS(=O)(=O)c4c(C)noc4C)cc3C(=O)N([C@H](C)CO)C[C@H]2C)cc1", "relative growth": "inactive: 0.993"}, {"smiles": "COc1cccc(S(=O)(=O)Nc2ccc3c(c2)OC[C@@H](C)N(C(=O)Cc2cccnc2)C[C@H](C)[C@H](OC)CN(C)C3=O)c1", "relative growth": "inactive: 1.02"}, {"smiles": "CN(C)CCN1CCO[C@H]2CN(C(=O)N(C)C)C[C@@H]21", "relative growth": "inactive: 1.02"}, {"smiles": "C[C@@H]1CN([C@@H](C)CO)C(=O)c2cc(NC(=O)Cc3ccccc3)ccc2O[C@H]1CN(C)S(=O)(=O)c1ccccc1", "relative growth": "inactive: 0.99"}, {"smiles": "COc1ccccc1-c1cccc(-c2nc(C(=O)N3CCCCC3)cc3c2[C@H](CCO)N([S@@](=O)C(C)(C)C)C3)c1", "relative growth": "inactive: 1.02"}, {"smiles": "C[C@@H]1CN([C@H](C)CO)C(=O)c2cccc(NC(=O)CCCCCC(=O)Nc3ccccc3N)c2O[C@@H]1CN(C)S(C)(=O)=O", "relative growth": "inactive: 0.989"}, {"smiles": "C[C@@H]1CCCCO[C@H](CN(C)C(=O)CCC(F)(F)F)[C@@H](C)CN([C@H](C)CO)C(=O)c2cc(NC(=O)C3CCCCC3)ccc2O1", "relative growth": "inactive: 0.979"}, {"smiles": "CC(C)NC(=O)Nc1ccc2c(c1)CC(=O)N([C@@H](C)CO)C[C@H](C)[C@@H](CN(C)Cc1ccc(C(=O)O)cc1)O2", "relative growth": "inactive: 0.999"}, {"smiles": "C[C@@H]1CCCCO[C@@H](CN(C)S(=O)(=O)c2ccccc2)[C@H](C)CN([C@H](C)CO)C(=O)c2cc(NS(C)(=O)=O)ccc2O1", "relative growth": "inactive: 0.989"}, {"smiles": "COc1ccc(S(=O)(=O)Nc2ccc3c(c2)C(=O)N([C@H](C)CO)C[C@H](C)[C@@H](CN(C)S(=O)(=O)c2cn(C)cn2)O3)cc1", "relative growth": "inactive: 1.01"}, {"smiles": "COc1ccc(S(=O)(=O)N(C)C[C@@H]2Oc3ccc(NC(=O)Cc4ccccc4)cc3CC(=O)N([C@@H](C)CO)C[C@@H]2C)cc1", "relative growth": "inactive: 1.04"}, {"smiles": "C[C@@H](O)C#Cc1cnc2c(c1)C(=O)N([C@@H](C)CO)C[C@H](C)[C@@H](CN(C)C(=O)Nc1ccc(C(F)(F)F)cc1)O2", "relative growth": "inactive: 0.977"}, {"smiles": "C[C@@H]1CN([C@@H](C)CO)C(=O)c2cc(NS(=O)(=O)c3ccccc3)ccc2O[C@@H](C)CCCCO[C@@H]1CN(C)C(=O)Nc1cccc2ccccc12", "relative growth": "inactive: 1.03"}, {"smiles": "C[C@@H]1CN([C@H](C)CO)C(=O)c2cc(NC(=O)Nc3ccc(F)cc3)ccc2O[C@@H](C)CCCCO[C@@H]1CN(C)C(=O)C1CCCCC1", "relative growth": "inactive: 1.01"}, {"smiles": "C[C@@H]1CCCCO[C@H](CN(C)C(=O)Nc2ccc(F)cc2)[C@H](C)CN([C@H](C)CO)C(=O)c2cc(NS(=O)(=O)c3ccc(F)cc3)ccc2O1", "relative growth": "inactive: 1.03"}, {"smiles": "c1cc(CNCCN2CCOCC2)ccn1", "relative growth": "inactive: 0.993"}, {"smiles": "COc1ccc2c3c(n(c2c1)C)[C@@H](CO)N(C[C@]13CN(Cc2cccc(c2)F)C1)C(=O)C1CCOCC1", "relative growth": "inactive: 1.02"}, {"smiles": "C[C@H](CO)N1C[C@H](C)[C@@H](CN(C)S(=O)(=O)c2ccc(Cl)cc2)Oc2c(NS(=O)(=O)c3cn(C)cn3)cccc2C1=O", "relative growth": "inactive: 1"}, {"smiles": "Cc1ccc(S(=O)(=O)N(C)C[C@@H]2Oc3c(NC(=O)c4ccncc4)cccc3C(=O)N([C@H](C)CO)C[C@H]2C)cc1", "relative growth": "inactive: 0.983"}, {"smiles": "C[C@H](CO)N1C[C@H](C)[C@@H](CN(C)Cc2ccc(C(=O)Nc3ccccc3N)cc2)Oc2c(NC(=O)Nc3ccc(F)cc3)cccc2C1=O", "relative growth": "inactive: 1.01"}, {"smiles": "CCS(=O)(=O)Nc1ccc2c(c1)C(=O)N(C)C[C@H](OC)[C@@H](C)CN(Cc1ccccn1)[C@H](C)CO2", "relative growth": "inactive: 1.04"}, {"smiles": "Cc1cc(C)nc(N2CC(=O)NC2=N)n1", "relative growth": "inactive: 0.965"}, {"smiles": "C[C@@H]1CN([C@H](C)CO)C(=O)Cc2cc(NC(=O)CCN3CCOCC3)ccc2O[C@H]1CN(C)S(=O)(=O)c1ccc(F)cc1", "relative growth": "inactive: 1"}, {"smiles": "C[C@@H]1CN([C@H](C)CO)C(=O)Cc2cc(NC(=O)CCCCCC(=O)Nc3ccccc3N)ccc2O[C@H]1CN(C)Cc1ccc(Oc2ccccc2)cc1", "relative growth": "inactive: 0.981"}, {"smiles": "C[C@H](CO)N1C[C@H](C)[C@@H](CN(C)S(=O)(=O)c2cn(C)cn2)Oc2ncc(C3=CCCC3)cc2C1=O", "relative growth": "inactive: 0.986"}, {"smiles": "COc1ccc2c3c(n(c2c1)C)[C@@H](CO)N(C[C@]13CCN(CC1)C(=O)c1ccncc1)C(=O)C1CCC1", "relative growth": "inactive: 1"}, {"smiles": "CC(C)NC(=O)Nc1ccc2c(c1)C(=O)N([C@H](C)CO)C[C@@H](C)[C@H](CN(C)C(=O)Nc1ccc(C(F)(F)F)cc1)OCCCC[C@@H](C)O2", "relative growth": "inactive: 1.04"}, {"smiles": "COc1ccc(S(=O)(=O)N2C[C@H](O)COC[C@H]3O[C@H](CC(=O)NCc4ccc(Cl)c(Cl)c4)CC[C@@H]32)cc1", "relative growth": "inactive: 1.01"}, {"smiles": "COc1ccc([Si](C)(C)[C@H]2[C@H](CCn3cc([C@H](O)c4ccccc4)nn3)O[C@@]3(C(=O)N(C)c4c(Br)cc(C)cc43)[C@@H]2C)cc1", "relative growth": "inactive: 0.886"}, {"smiles": "CCNC(=O)c1cccc(NS(C)(=O)=O)c1", "relative growth": "inactive: 0.976"}, {"smiles": "C[C@@H]1CN([C@@H](C)CO)C(=O)Cc2cc(NS(=O)(=O)c3ccccc3)ccc2O[C@@H]1CN(C)Cc1ccc(Cl)c(Cl)c1", "relative growth": "inactive: 0.994"}, {"smiles": "C[C@@H]1CN([C@H](C)CO)C(=O)Cc2cc(NC(=O)C3CC3)ccc2O[C@@H]1CN(C)S(=O)(=O)c1ccc(Cl)cc1", "relative growth": "inactive: 0.977"}, {"smiles": "C[C@H]1CN([C@@H](C)CO)C(=O)c2cc(NC(=O)Nc3cccc4ccccc34)ccc2O[C@H]1CN(C)Cc1ccc(C(=O)O)cc1", "relative growth": "inactive: 0.992"}, {"smiles": "CN(C)C(=O)C[C@@H]1CC[C@H]2[C@@H](COC[C@H](O)CN2S(=O)(=O)c2ccccc2)O1", "relative growth": "inactive: 1.01"}, {"smiles": "CC(C)NC(=O)N(C)C[C@@H]1Oc2ccc(NS(=O)(=O)c3cccs3)cc2C(=O)N([C@@H](C)CO)C[C@@H]1C", "relative growth": "inactive: 0.996"}, {"smiles": "C[C@@H]1CCCCO[C@@H](CN(C)C(=O)Cc2ccccc2)[C@@H](C)CN([C@@H](C)CO)C(=O)c2cc(NC(=O)c3ccccc3)ccc2O1", "relative growth": "inactive: 0.985"}, {"smiles": "N=C(N=C(N)N)N1N=CC[C@@H]1c1ccccc1", "relative growth": "inactive: 1.01"}, {"smiles": "C[C@@H]1CCCCO[C@@H](CN(C)S(=O)(=O)c2cccs2)[C@H](C)CN([C@@H](C)CO)C(=O)c2cc(NC(=O)Nc3ccccc3)ccc2O1", "relative growth": "inactive: 1.02"}, {"smiles": "C[C@H]1CC/C=C\\[C@H]2O[C@@]34C=CCN(Cn5nnc6ccccc65)C(=O)[C@H]3N(CCCCCO)C(=O)[C@@H]4[C@@H]2C(=O)O1", "relative growth": "inactive: 0.977"}, {"smiles": "COc1ccc(-c2cn(CCCNC(=O)[C@H](Cc3ccccc3)NS(=O)(=O)c3ccc(C)cc3)nn2)cc1OC", "relative growth": "inactive: 1.02"}, {"smiles": "COc1ccc2c3c(n(c2c1)C)[C@H](CO)N(C[C@]13CCN(CC1)C(=O)CN(C)C)C(=O)C1CCCCC1", "relative growth": "inactive: 1.03"}, {"smiles": "COc1ccc(NC(=O)N(C)C[C@@H]2OCCCC[C@@H](C)Oc3ccc(NS(=O)(=O)c4ccc(C)cc4)cc3C(=O)N([C@H](C)CO)C[C@@H]2C)cc1", "relative growth": "inactive: 0.987"}]}]}
